# Experimental data reported in PubChem BioAssay (NCATS).
# Inconclusive results, whose numbers are uncertain, are shown with a selection of clear calls. Potencies of inconclusive entries are doubtful fits and often do not repeat. The source made the active and inactive calls. Unless noted, calls come from the whole dose curve; as a rule, active = well fitted inhibition curve with a large enough effect; inconclusive = small, poorly fitted or top-dose-only effect; inactive = flat fitted curve, though single readings scatter.
# System: not listed separately
# Experiment: qHTS Assay for Identification of Small Molecule Agonists for Hypoxia Response Element Signaling Pathway (AID 914; active = well fitted activation curve with a large enough effect in the signal ratio, with a control signal flat, not every such curve was filed as active; inconclusive = small, poorly fitted or top-dose-only effect, or effect the other way, or a change in a side signal; the % refers to the signal ratio; for activation: top concentration of the series differs between compounds; % of control where 0% means no effect)
# Conditions: ME-180 (cervical carcinoma) HRE-bla reporter, beta-lactamase ratio, CoCl2, 17 h; activation: stronger effect = higher value
# Method in brief: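 A beta-lactamase reporter under hypoxia response element control in ME-180 cells served as the system. Compound titrations plus EC50 CoCl2 ran 17 h at 37 degrees Celsius; AC50 values were fitted from %Activity.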
# Potency is the fitted concentration of half-maximal effect; tags give direction and shape of the fitted curve or compound fluorescence and quenching.
SMILES,Potency,activation
FC(F)(F)c1ccccc1-c1cc(NCc2cccs2)ncn1,"inconclusive: 5.01 µM [inhibitor, single point]",
CCNc1ncc2nc(C)c(=O)n(-c3ccc(OC)cc3)c2n1,,inactive: -10.1%
COc1ccccc1-c1nccc(NCc2cccnc2)n1,,inactive: 4.59%
O=c1cnc2cnc(Nc3ccccc3)nc2n1Cc1ccc(F)cc1,"inconclusive: 0.631 µM [inhibitor, single point]",
Cn1c(=O)c(-c2cccs2)nc2cncnc21,"inconclusive: 5.01 µM [activator, single point]",
COc1cccc(Cn2c(=O)cnc3cnc(Oc4ccccc4)nc32)c1,,inconclusive: -25.4%
COc1cccc(Nc2ncc3nc(-c4cn(C)c5ccccc45)c(=O)n(CCC#N)c3n2)c1,,inconclusive: -0.315%
Cc1noc(C)c1-c1ccc2ncnc(NC3CCNCC3)c2c1,"inconclusive: 1.26 µM [activator, partial curve]",
CN(C)c1ncc2nc(-c3ccccc3)c(=O)n(C[C@H]3CCCO3)c2n1,"inconclusive: 3.98 µM [activator, single point]",
CCNc1ncc2nc(C)c(=O)n(Cc3cccs3)c2n1,"inconclusive: 2 µM [inhibitor, partial curve]",
CN(C)c1ccc(-c2cncnc2NCc2cccnc2)cc1,,inactive: 1.46%
COc1ccc(CNc2ccnc(-c3ccccc3Cl)n2)c(OC)c1,,inactive: -15.3%
COc1ccccc1-c1nc(N(C)Cc2ccco2)c2ccccc2n1,,inconclusive: 25.5%

# Target: Dual specificity protein kinase CLK4 (Homo sapiens) (UniProt Q9HAZ1)
# Experiment: qHTS Assay for Inhibitors of CDC-like Kinase 4 (Kinase-Glo Assay) (AID 1770); note: nearly all actives have a fitted effect of over 65% in size; for activity, negative = inhibition: % is set by controls: 0 for no effect and ±100 for the full control effect
# Conditions: recombinant Clk4, Kinase-Glo ATP depletion luminescence; series mostly up to 66.7 µM; activity, negative = inhibition: at the top concentration
# Method in brief: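 Recombinant human Clk4 (25 nM) phosphorylated RS repeat peptide (100 uM) with 1 uM ATP in Tris pH 7.5/MgCl2/EGTA/DTT/Triton buffer for 4.5 h at room temperature. Residual ATP was quantified by Kinase-Glo luciferase luminescence.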
# Sequence of UniProt Q9HAZ1 (Q9HAZ1 whole entry, looked up): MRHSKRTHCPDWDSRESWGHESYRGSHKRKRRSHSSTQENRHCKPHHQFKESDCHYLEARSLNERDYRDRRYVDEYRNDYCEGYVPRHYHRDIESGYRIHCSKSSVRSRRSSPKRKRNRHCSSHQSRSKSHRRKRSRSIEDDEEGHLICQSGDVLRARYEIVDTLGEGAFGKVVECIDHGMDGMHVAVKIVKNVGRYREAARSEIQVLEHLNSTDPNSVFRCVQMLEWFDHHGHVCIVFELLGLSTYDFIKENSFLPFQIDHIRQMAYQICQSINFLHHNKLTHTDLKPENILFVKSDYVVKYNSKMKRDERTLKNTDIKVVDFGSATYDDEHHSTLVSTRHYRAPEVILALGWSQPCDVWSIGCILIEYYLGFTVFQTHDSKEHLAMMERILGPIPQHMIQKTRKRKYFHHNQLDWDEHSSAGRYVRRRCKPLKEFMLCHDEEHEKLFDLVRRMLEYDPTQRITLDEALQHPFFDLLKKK
SMILES,Potency,"activity, negative = inhibition"
COc1ccc2[nH]cc(CCNc3cc(-c4c(C)noc4C)ncn3)c2c1,"inconclusive: 28.2 µM [falling, partial curve]",
FC(F)(F)c1ccccc1-c1cc(NCc2cccs2)ncn1,"inconclusive: 28.2 µM [falling, single point]",
Cn1cc(-c2nc3cncnc3n(C3CC3)c2=O)c2ccccc21,"inconclusive: 15.8 µM [falling, partial curve]",
c1ccc(Nc2ncncc2-c2ccoc2)cc1,"inconclusive: 28.2 µM [falling, partial curve]",
CC(=O)NCCNc1ccnc(-c2ccccc2C)n1,"inconclusive: 25.1 µM [falling, partial curve]",
CCNc1ncc2nc(C)c(=O)n(-c3ccc(OC)cc3)c2n1,"inconclusive: 17.8 µM [falling, partial curve]",
COc1ccccc1-c1nccc(NCc2cccnc2)n1,"inconclusive: 28.2 µM [falling, partial curve]",
CCNc1ncc2nc(C)c(=O)n(C)c2n1,"inconclusive: 15.8 µM [falling, partial curve]",
O=c1cnc2cnc(Nc3ccccc3)nc2n1Cc1ccc(F)cc1,"inconclusive: 3.16 µM [falling, partial curve]",
COCCn1c(=O)c(C)nc2cnc(Oc3ccccc3)nc21,,inactive: -0.732%
COc1ccc(CNc2ncncc2-c2ccc(N(C)C)cc2)c(OC)c1,"inconclusive: 25.1 µM [falling, partial curve]",
c1ncc(-c2ccoc2)c(NC2CC2)n1,"inconclusive: 25.1 µM [falling, single point]",
CN(Cc1ccco1)c1cc(-c2cccnc2)ncn1,"inconclusive: 25.1 µM [falling, partial curve]",
COc1ccc(Oc2ncc3ncc(=O)n(C)c3n2)cc1,"inconclusive: 28.2 µM [falling, single point]",
Cn1c(=O)c(-c2cccs2)nc2cncnc21,"inconclusive: 12.6 µM [falling, partial curve]",
c1ccc(CNc2ncnc3ccc(-c4ccoc4)cc23)cc1,active: 14.1 µM,
c1ccc(CNc2nc(-c3ccoc3)nc3ccccc23)cc1,"inconclusive: 31.6 µM [falling, single point]",
CC(=O)NCCNc1ccnc(-c2ccccc2C(F)(F)F)n1,"inconclusive: 28.2 µM [falling, single point]",
O=c1cnc2cnc(N3CCOCC3)nc2n1C1CC1,"inconclusive: 28.2 µM [falling, single point]",
COc1ccccc1-c1cncnc1NCc1cccs1,"inconclusive: 35.5 µM [falling, single point]",

SMILES,Potency,"activity, negative = inhibition"
CCNc1ncc2nc(C)c(=O)n(C3CC3)c2n1,"inconclusive: 28.2 µM [falling, partial curve]",
CN(C)c1ccc(-c2cncnc2Nc2ccccc2)cc1,active: 22.4 µM,
COc1ccc2[nH]cc(CCNc3ncncc3-c3c(C)noc3C)c2c1,"inconclusive: 17.8 µM [falling, partial curve]",
COc1cccc(Cn2c(=O)cnc3cnc(Oc4ccccc4)nc32)c1,"inconclusive: 22.4 µM [falling, single point]",
COCCNc1cc(-c2c(C)noc2C)ncn1,"inconclusive: 35.5 µM [falling, single point]",
COc1cccc(Nc2ncc3nc(-c4cn(C)c5ccccc45)c(=O)n(CCC#N)c3n2)c1,"inconclusive: 28.2 µM [falling, partial curve]",
FC(F)(F)c1ccccc1-c1cc(NCc2ccccc2)ncn1,,inactive: -16.8%
COc1ccc(CNc2ccnc(-c3cccnc3)n2)c(OC)c1,"inconclusive: 35.5 µM [falling, single point]",
Cc1noc(C)c1-c1ccc2ncnc(NC3CCNCC3)c2c1,"inconclusive: 17.8 µM [falling, partial curve]",
CN(C)c1ncc2nc(-c3ccccc3)c(=O)n(C[C@H]3CCCO3)c2n1,,inactive: -7.16%
COc1cccc(-c2cncnc2NCc2cccs2)c1,"inconclusive: 22.4 µM [falling, partial curve]",
CCNc1ncc2nc(C)c(=O)n(Cc3cccs3)c2n1,"inconclusive: 14.1 µM [falling, partial curve]",
CN(C)c1ccc(-c2cncnc2NCc2cccnc2)cc1,"inconclusive: 28.2 µM [falling, single point]",
CN(C)C(=O)c1ccc(-c2cncnc2-n2ccnc2)cc1,"inconclusive: 35.5 µM [falling, single point]",
COc1ccc(CNc2ccnc(-c3ccccc3Cl)n2)c(OC)c1,"inconclusive: 35.5 µM [falling, single point]",
COCCn1c(=O)c(-c2cccc(F)c2)nc2cncnc21,"inconclusive: 31.6 µM [falling, partial curve]",
COc1ccc(CNc2cc(-c3ccccc3Cl)ncn2)c(OC)c1,"inconclusive: 31.6 µM [falling, partial curve]",
COc1ccccc1CNc1ccnc(-c2ccccc2CN(C)C)n1,,inactive: -2.99%
COc1ccccc1-c1nc(N(C)Cc2ccco2)c2ccccc2n1,"inconclusive: 35.5 µM [falling, single point]",
O=c1c(-c2cccs2)nc2cncnc2n1-c1ccccc1,"inconclusive: 20 µM [falling, partial curve]",
